# Results published in PubChem BioAssay (Tox21).
# Results filed as inconclusive are left out. Unless noted, calls follow the shape of the dose curve; as a rule, active = well fitted curve in the direction sought with a large enough effect in the repeat runs; inconclusive = weak or mixed curves; inactive = no such curve, though single readings can be large; an effect the other way counts as inactive or inconclusive. A structure can be active in one record and inactive in another. The source holds more than one record for some entries. The other results are left out here. There may be further records. The records of an entry repeat one measurement (runs, samples, wells, individuals or studies). Marks in square brackets tell the records apart. Letters count within one entry.
# Tests used:
# [1] = qHTS assay to identify small molecule antagonists of the progesterone receptor (PR) signaling pathway - cell viability counter screen (AID 1346798); also: nearly all actives have a fitted effect of over 50% in size
# Outline: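 ATP content as viability readout: CellTiter-Glo luminescence, 30 min room temperature, in PR-UAS-bla HEK293T cells after 16 hr compound/R5020 treatment at 37C and 5% CO2.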
# [2] = A CellTox Green Cytotoxicity Assay to monitor cytotoxicity in HEK293 cells - 24 hour (AID 1224875); also: nearly all actives have a fitted effect of over 45% in size
# Outline: (§1)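 HEK293 cells premixed with CellTox Green dye were seeded at 600 cells/well and left 5 h at 37 C/5% CO2 before pin transfer of 23 nL compound in DMSO. Fluorescence from dye bound to dead-cell DNA was read during 40 h treatment.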
# [3] = A CellTox Green Cytotoxicity Assay to monitor cytotoxicity in HEK293 cells - 16 hour (AID 1224888); also: nearly all actives have a fitted effect of over 35% in size
# Outline: as §1
# [4] = qHTS assay to identify small molecule antagonists of the androgen receptor (AR) signaling pathway using the MDA cell line - cell viability counter screen (AID 743041; also: nearly all actives have a fitted effect of over 45% in size)
# Outline: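 R1881-driven MDA-kb2 AR-luc cells, 3,000/well, were dosed with library compounds for 16 h; cell health came from CellTiter-Fluor fluorescence in the reporter wells.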
# [5] = qHTS assay to identify small molecule antagonists of the thyroid receptor (TR) signaling pathway (AID 743065); also: nearly all actives have a fitted effect of over 55% in size
# Outline: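 Antagonism measured as loss of luciferase signal in GH3 cells stably carrying a TRE-luciferase reporter, co-treated with compound and T3 (1 nM final) for 23.5 h at 37 C. Viability was read in the same well by CellTiter-Fluor.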
# [6] = qHTS assay to identify small molecule antagonists of the peroxisome proliferator-activated receptor gamma (PPARg) signaling pathway - cell viability counter screen (AID 743194); also: nearly all actives have a fitted effect of over 55% in size
# Outline: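 Viability was measured as CellTiter-Glo luminescence in GeneBLAzer PPARg UAS-bla HEK293H cells. These cells had been exposed 17 h at 37 C to compounds together with rosiglitazone at 50 nM final, with the beta-lactamase readout taken in the same wells.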
# [7] = qHTS assay to identify small molecule agonists of the constitutive androstane receptor (CAR) signaling pathway - cell viability counter screen (AID 1224836); also: nearly all actives have a fitted effect of over 45% in size
# Outline: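 Multiplexed viability check: HepG2-CYP2B6-hCAR cells, 15-point compound dosing, 0.75 uM PK11195 final, 23 h at 37 C, CellTiter-Fluor fluorescence.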
# [8] = qHTS assay to identify small molecule antagonists of the constitutive androstane receptor (CAR) signaling pathway - cell viability counter screen (AID 1224837); also: nearly all actives have a fitted effect of over 45% in size
# Outline: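 HepG2 cells stably expressing hCAR and a CYP2B6-2.2kb reporter were plated and pre-incubated 4 hr at 37 C/5% CO2, then given compounds at 15 concentrations plus 50 nM CITCO (final). After 23 hr, viability was read by CellTiter-Fluor fluorescence.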
# [9] = qHTS assay to identify small molecule antagonists of the TGF-beta/Smad signaling pathway - cell viability counter screen (AID 1346824); also: nearly all actives have a fitted effect of over 50% in size
# Outline: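 Cytotoxicity counter-screen run in the same wells as the beta-lactamase Smad reporter read: CellTiter-Glo luminescence after 30 min at room temperature. HEK 293T SBE-bla cells had 5 hr compound exposure at 37 C with TGF-beta1 (0.25 ng/mL stock).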
# [10] = qHTS assay to identify small molecule agonists of the sonic hedgehog signaling (Shh) pathway (AID 1259368; calls by dose curve; also: nearly all actives have a fitted effect of over 15% in size)
# Outline: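 NIH/3T3-derived 3T3Gli1-Luc cells carrying a stably integrated Gli1 response element–firefly luciferase reporter were plated, left 4 hr at 37 C, then given compounds in DMSO for 24 hr. Luminescence was read 30 min after adding luciferase reagent.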
# [11] = qHTS assay for small molecules that induce genotoxicity in human embryonic kidney cells expressing luciferase-tagged ATAD5 - cell viability (AID 651634; calls by dose curve; also: nearly all actives have a fitted effect of over 25% in size)
# Outline: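 HEK293T cells expressing luciferase-tagged ATAD5 were exposed to compound or DMSO for 15.5 hr at 37C, 5% CO2. Viability was then read as live-cell protease activity by CellTiter-Fluor fluorescence after 30 min at 37C.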
# [12] = qHTS assay to identify small molecule antagonists of the glucocorticoid receptor (GR) signaling pathway - cell viability counter screen (AID 720693); also: nearly all actives have a fitted effect of over 55% in size
# Potency is read from the fitted curve at half-maximal effect.
smiles,measurement,setting,value
Nc1ccc([N+](=O)[O-])cc1N,Potency,[1],active: 30.6 µM [sample A] and inactive [sample B]
CCCCCCCCCCCCCl,Potency,[2],inactive [sample A] and active: 19.5 µM [sample B]
same,Potency,[3],inactive [sample A] and active: 19.5 µM [sample B]
CCOP(=O)(O)OCC (tested in a mixture with another compound),Potency,[4],inactive [sample A] and active: 54 µM [sample B]
same,Potency,[5],inactive [sample A] and active: 3.41 µM [sample B]
same,Potency,[6],inactive [sample A] and active: 6.86 µM [sample B]
same,Potency,[7],inactive [sample A] and active: 24.1 µM [sample B]
same,Potency,[8],inactive [sample A] and active: 27.1 µM [sample B]
same,Potency,[2],inactive [sample A] and active: 34.4 µM [sample B]
same,Potency,[3],inactive [sample A] and active: 48.6 µM [sample B]
same,Potency,[9],inactive [sample A] and active: 38.6 µM [sample B]
Cc1cccc(N=Nc2ccc(N(C)C)cc2)c1,Potency,[8],inactive [sample A] and active: 433 nM [sample B]
same,Potency,[10],inactive [sample A] and active: 486 nM [sample B]
CC(C)(c1ccccc1)c1ccc(O)cc1,Potency,[6],active: 54.5 µM [sample A] and inactive [sample B]
C[C@]12CCC(=O)C=C1CC[C@@H]1[C@@H]2CC[C@@]2(C)[C@H]1CC[C@]2(C)O,Potency,[2],active: 44 µM [sample A] and inactive [sample B]
same,Potency,[3],active: 44 µM [sample A] and inactive [sample B]
Oc1ccc(Cl)cc1Cc1ccccc1,Potency,[11],inactive [sample A] and inactive [sample B] and active: 55.1 µM [sample C]
same,Potency,[12],inactive [sample A] and active: 55.6 µM [sample B]
same,Potency,[6],active: 49 µM [sample A] and inactive [sample B]
CC(C)Nc1ccc(Nc2ccccc2)cc1,Potency,[7],active: 68.3 µM [sample A] and inactive [sample B]
COP(=S)(OC)Oc1ccc(S(=O)(=O)N(C)C)cc1,Potency,[5],inactive [sample A] and active: 68.6 µM [sample B]
CC(C)=CC1C(C(=O)OCN2C(=O)C3=C(CCCC3)C2=O)C1(C)C (centres undefined),Potency,[5],inactive [sample A] and active: 61.1 µM [sample B]
OC(c1ccc(Cl)cc1)(c1cncnc1)c1ccccc1Cl (centres undefined),Potency,[2],active: 35.3 µM [sample A] and inactive [sample B]
same,Potency,[3],active: 44.4 µM [sample A] and inactive [sample B]
Cn1c(-c2ccccc2)cc(-c2ccccc2)[n+]1C,Potency,[4],inactive [sample A] and active: 19.3 µM [sample B]
Clc1ccccc1-c1nnc(-c2ccccc2Cl)nn1,Potency,[10],active: 54 µM [sample A] and inactive [sample B]
O=C(O)c1nn(Cc2ccc(Cl)cc2Cl)c2ccccc12,Potency,[5],inactive [sample A] and active: 48.2 µM [sample B]
CCCCOCC1CO1 (centres undefined),Potency,[2],inactive [sample A] and active: 19.5 µM [sample B]
same,Potency,[3],inactive [sample A] and active: 19.5 µM [sample B]
N#Cc1nn(-c2c(Cl)cc(C(F)(F)F)cc2Cl)c(N)c1S(=O)C(F)(F)F (centres undefined),Potency,[4],inactive [sample A] and active: 61.5 µM [sample B]
same,Potency,[7],active: 34.6 µM [sample A] and inactive [sample B]
Cc1ccc(N=CN(C)C=Nc2ccc(C)cc2C)c(C)c1,Potency,[5],inactive [sample A] and active: 61.4 µM [sample B] and active: 48.5 µM [sample C]
same,Potency,[6],active: 43.8 µM [sample A] and inactive [sample B]
CCCCCCCCCc1ccc(O)cc1,Potency,[2],active: 39.3 µM [sample A] and inactive [sample B]
